Measured values: the RNAGym collection of RNA variant scans (doi:10.7554/elife.90254)
The source gives no read counts; variants with many changes may rest on few reads.

B1: LINE1-mini (parent)
chain: GGCAGAGCUCAACACAGCGUGGCAAAGUGGCUGUGGCUAGACUGCC

Variants of: B1
Experiment: self-cleavage, relative activity (ratio to wild type); higher = more cleavage; in vitro, sequencing; the parent is a self-cleaving ribozyme

Variant | self-cleavage
C31G U38G C45A | 0.02
C31U A39U C45A | 0.02
C31U A41G C42A | 0.01
C31U C37G C46A | 0.01
C31U C37U C46A | 0.02
C31U C37U U43G C46G | 0.06
C31U G33C A39U | 0.05
C31U G33C C37G | 0.09
C31U G33C G35A C37G A39U A41U | 0.26
C31U G35C U38A | 0.11
C31U G35U G44C C45A | 0.01
C31U G36A G44U | 0.09
C31U G36C C46G | 0.07
C31U G40A C45G | 0.04
C31U G44A C45A | 0.02
C31U U32C U38A G40A C45U | 0.06
C31U U32G C46U | 0.03
C31U U34A G36U | 0.01
C31U U34G U38G | 0.02
C31U U38A A41U U43A G44C | 0.01
C31U U38A C46U | 0.02
C31U U38C G40C | 0.02
U32A A39G U43A | 0.06
U32A A39U A41U | 0.02

Variant | self-cleavage
U32A A41C C46A | 0.03
U32A A41U C46U | 0.04
U32A C37A A41U | 0.02
U32A C37A C46G | 0.14
U32A C37U C45U | 0.02
U32A C42A C46A | 0.11
U32A C42A U43A | 0.12
U32A C42G C46G | 0.03
U32A G33A A41U G44A | 0.06
U32A G33C C42A | 0.04
U32A G33U U34C G36A | 0.05
U32A G36C G40C | 0.01
U32A G36U G40U C46A | 0.18
U32A G40C G44C | 0.02
U32A U34A U43C C45G | 0.02
U32A U34C A39G U43A C45U | 0.05
U32A U38A C45U | 0.01
U32C A39G A41C | 0.04
U32C A39U G40U | 0.09
U32C A41C U43C | 0.05
U32C A41U U43G C45U | 0.03
U32C C37A A39G | 0.01
U32C C42A C45U | 0.04
U32C G33A A39G C45U | 0.08

Variant | self-cleavage
U32C G33C C42A | 0.06
U32C G33U G36A | 0.01
U32C G33U G40A | 0.04
U32C G33U U38A | 0.01
U32C G33U U43A | 0.06
U32C G35A C42A | 0.03
U32C G35A C42G | 0.04
U32C G35C C46A | 0.02
U32C G35C G40C | 0.07
U32C G35C G40C C46G | 0.02
U32C G35U C37U | 0.05
U32C G40U C46G | 0.08
U32C G40U C46U | 0.06
U32C G44A C46G | 0.03
U32C U34A G44C C45U | 0.04
U32G A41C C42A | 0.07
U32G A41G C46A | 0.03
U32G A41U G44A | 0.05
U32G C37A A39C G40A | 0.1
U32G C37A C46G | 0
U32G C42A U43A | 0.08
U32G C42G C46A | 0.18
U32G C45A C46A | 0.06
U32G G33C G44C | 0.38

Variant | self-cleavage
U32G G33U A41U | 0.05
U32G G35A G40A | 0.02
U32G G35A G44A | 0.03
U32G G35A U38A G44A | 0.06
U32G G35C C37G | 0.02
U32G G36C C46G | 0.22
U32G G36U C46U | 0.05
U32G G40A C42U G44C | 0.02
U32G G44U C46U | 0.02
G33A A39C C45G | 0.02
G33A A39C U43C | 0.17
G33A C42A C45A | 0.01
G33A C42A U43A | 0.1
G33A C42A U43A G44A | 0.09
G33A C42A U43G | 0.07
G33A C42G C45U | 0.03
G33A C45G C46G | 0.05
G33A G35A G36A | 0.1
G33A G35A U38C | 0.04
G33A G35C G40C C46G | 0.07
G33A G35U C37G | 0.03
G33A G36C G40A | 0.07
G33A G36U C42U C46A | 0
G33A G36U G44A | 0.1

Variant | self-cleavage
G33A G40A C45A | 0.05
G33A G40A G44C C46U | 0.02
G33A G44C C46G | 0.06
G33A U34A U38C | 0.03
G33A U34G G36A | 0.13
G33A U38C A39U | 0.02
G33A U38G C46U | 0.02
G33A U43C C45U | 0.12
G33C A39C C46U | 0.04
G33C A39C G44U | 0.04
G33C C37A U43A | 0.03
G33C C37U C46U | 0.02
G33C C37U G40A | 0.02
G33C C37U G44U | 0.01
G33C G35A G36U | 0.05
G33C G35C C37G | 0.02
G33C G35U U38A C46U | 0.02
G33C G36U A41U | 0
G33C G36U C37A A41G C42G | 0.03
G33C G40A C45A | 0.05
G33C G40C G44U | 0.1
G33C G40U C45A | 0.03
G33C G40U C46U | 0.04
G33C G44C C45U | 0.02

Variant | self-cleavage
G33C U34G G35C G40C C46U | 0
G33C U38C A39G G40U A41U | 0.03
G33C U38C G40C G44A | 0.01
G33C U38G C45G | 0.03
G33C U38G G44U | 0.05
G33U A39C C42G | 0.05
G33U A39C C46G | 0.09
G33U A41C C45A | 0.01
G33U C37A A39U U43A G44A | 0.03
G33U C37A G44A | 0.07
G33U C37A U43C | 0.04
G33U C37U A41C | 0.23
G33U C42A U43G G44A | 0.06
G33U C42U U43A C46U | 0.04
G33U C45U C46A | 0.11
G33U G35C G36C | 0.04
G33U G35C G36C A39G G44C | 0.01
G33U G35C G40C | 0.01
G33U G35U A39C | 0.06
G33U G35U C46A | 0.01
G33U G35U G36C C46A | 0.12
G33U G35U U43A | 0.09
G33U G36A C45G | 0.02
G33U G36A C46A | 0.04

Variant | self-cleavage
G33U G36U A41U | 0.15
G33U G36U C45G | 0.02
G33U G40C C42U | 0.11
G33U U34C G44U | 0.03
G33U U34G A41G | 0.05
G33U U34G G36U | 0.06
G33U U38G C42U C46U | 0.03
G33U U43C C45U | 0.05
U34A A41G G44A | 0
U34A C37A A39G | 0.11
U34A C37A U43G | 0
U34A C37G G40A | 0.02
U34A C42U C46U | 0.06
U34A G36A U43G C45U | 0.02
U34A G36C C42U | 0.08
U34A G40C U43A | 0.01
U34C C37U A41U | 0.04
U34C C37U G40U | 0.01
U34C C37U U38C C45U | 0.04
U34C C42A U43C | 0.09
U34C C42G C45A | 0.01
U34C G35A A41U | 0.01
U34C G35U C42U | 0.04
